Test results: PubChem BioAssay AID504466 (National Center for Advancing Translational Sciences (NCATS), 2011)
In all, about 330,000 compounds went through this assay and about 4,200 (1.3%) were called active. This list was built around the results that the source calls inconclusive (neither active nor inactive); the mix of calls is not that of the screen. Calls come from the whole dose curve; as a rule, active = well fitted activation curve with a large enough effect; inconclusive = small, poorly fitted or top-dose-only effect; inactive = no such curve, though single readings can be large or run the other way. Where the call is inconclusive, the potency comes from a doubtful curve fit.
Potency is the fitted concentration of half-maximal effect; tags give direction and shape of the fitted curve.

Assay: qHTS screen for small molecules that induce genotoxicity in human embryonic kidney (HEK293T) cells expressing luciferase-tagged ELG1; note: nearly all actives have a fitted effect of over 60% in size; for activity change, positive = activation: % of control where 0% means no effect
Settings: HEK293T ELG1-luciferase reporter, luminescence, 16 h; series mostly up to 46 µM; activity change, positive = activation: at the top concentration
How it was run: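 Step 1: seed 2,000 HEK293T ELG1-luciferase cells per well. Step 2: add compound or DMSO, incubate 16 hr at 37 °C. Step 3: ONE-Glo, 30 min at room temperature, read luminescence.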
With CCOc1ccc(NC(=O)c2ccc3c(=O)n(-c4ccc(OC)cc4OC)c(=S)[nH]c3c2)cc1 the Potency was inconclusive: 0.184 µM [activator, single point]. With COc1cc2c(cc1NC(=O)CCCN1C(=O)CCC1=O)oc1ccccc12 the Potency was inconclusive: 16.4 µM [activator, partial curve]. With O=C(O)Cc1cn(-c2ccccc2)nc1-c1ccccc1 the “activity change, positive = activation” value was inactive: 0.0307%. With O=[N+]([O-])c1cccc(-c2ccc(C(=S)N3CCOCC3)o2)c1 the Potency was inconclusive: 2.31 µM [activator, full curve]. In the case of CCc1cc2c(SCC(=O)c3cccs3)ncnc2s1, the Potency is reported as active: 23.1 µM. For O=c1oc(Nc2cccc(Cl)c2)nc2ccccc12, the Potency was active: 13 µM. For O=C(Nc1cccc([N+](=O)[O-])c1)c1cccc(C(=O)Nc2cccc([N+](=O)[O-])c2)c1, the Potency was inconclusive: 32.6 µM [activator, partial curve, poor fit]. With Cc1ccc(/C=N/NC(=O)c2ccoc2C)o1 the “activity change, positive = activation” value was inactive: 16.2%. In the case of O=C(Nc1ccc2c(c1)CCC2)c1cnn2c1NC(c1ccco1)CC2C(F)(F)F (stereo not given), the Potency is reported as inconclusive: 14.6 µM [activator, partial curve]. For CC(=O)Nc1ccc(NC(=O)C(C)OC(=O)c2oc3ccccc3c2C)cc1 (stereo not given), the Potency was inconclusive: 10.3 µM [activator, partial curve, poor fit]. For COC(=O)c1ccccc1C(=O)N1CCCC(CCC(=O)NCc2ccc(F)c(F)c2)C1 (stereo not given), the Potency was inconclusive: 20.6 µM [activator, partial curve]. With O=C(NCCc1cscn1)C1CCC(=O)N(Cc2ccc(Cl)cc2)C1 (stereo not given) the Potency was inconclusive: 32.6 µM [activator, partial curve, poor fit]. In the case of COCC(C)n1c(C)cc(C(=O)COC(=O)c2n[nH]c3ccccc23)c1C (stereo not given), the Potency is reported as inconclusive: 1.41 µM [activator, partial curve, poor fit]. With Oc1ccc(/C=N/Nc2ncnc3c2ncn3Cc2ccccc2)cc1O the Potency was inconclusive: 23.1 µM [activator, single point]. For COc1cc(CC(=O)Nc2ccc(S(=O)(=O)NC3=NCCCCC3)cc2)cc(OC)c1OC, the “activity change, positive = activation” value was inactive: 1.87%. For CCOC(=O)C1=C(C)NC(C)=C(C(=O)OCC)C1C(=O)OCC(=O)NCc1ccco1, the “activity change, positive = activation” value was inactive: -6.44%. With O=c1[nH]c(C2CCN(S(=O)(=O)c3ccccc3)CC2)nc2c1nnn2Cc1ccccc1 the “activity change, positive = activation” value was inactive: -0.249%. In the case of CC1CCC2(CC1)Nc1ccccc1C(=O)N2c1ccccc1 (stereo not given), the Potency is reported as inconclusive: 23.1 µM [activator, partial curve, poor fit]. In the case of CCCc1ccc(Oc2cn[nH]c2-c2ccc(O)c(C)c2O)cc1, the Potency is reported as inconclusive: 32.6 µM [activator, single point]. For C=CCNc1cnn(-c2ccc(C)cc2)c(=O)c1Cl, the Potency was inconclusive: 10.3 µM [activator, partial curve]. For Nc1nc(COc2ccccc2)cs1, the Potency was inconclusive: 20.6 µM [activator, single point]. In the case of COc1ccc(-n2nc(C(=O)NCC(=O)NCCCN3CC(C)CC(C)C3)c3ccccc3c2=O)cc1OC (stereo not given), the “activity change, positive = activation” value is reported as inactive: -1.79%. For Cc1ccc(C)c(NC(=O)Cn2nnc(C(=O)NCc3cccs3)c2N)c1, the Potency was inconclusive: 29.1 µM [activator, partial curve, poor fit]. With CC[C@H](C)Cc1cn([C@@H](CCCN=C(NC(=O)OC(C)(C)C)NC(=O)OC(C)(C)C)C(=O)NCCCCCCCCCCC(=O)N2CCN(C(=O)OC(C)(C)C)CC2)nn1 the “activity change, positive = activation” value was inactive: -40.5%. For CCOc1ccc(N=C(C)c2ccccc2O)cc1, the “activity change, positive = activation” value was inactive: -0.281%. With COc1ccc(C(=O)NCCc2nnc3ccc(SCC(=O)Nc4cc(C)on4)nn23)cc1 the “activity change, positive = activation” value was inactive: 3.4%. For CN(C)/C=N/c1nc2nccc(-c3ccccc3)n2n1, the “activity change, positive = activation” value was inactive: 2.49%. With Cc1ccccc1-n1ncc2c1CC(C)(C)CC2NC(=O)CCCN1CCCC1=O (stereo not given) the “activity change, positive = activation” value was inactive: 14.6%. For CCOC(=O)C1=C(C)NC(C)=C(C(=O)OCC)C1C(=O)OCC(=O)N(C)Cc1ccccc1, the “activity change, positive = activation” value was inactive: 1.69%. With CN(CC(=O)Nc1ccccc1Cl)C(=O)COC(=O)c1cc([N+](=O)[O-])ccc1N1CCOCC1 the “activity change, positive = activation” value was inactive: 2.22%. In the case of Brc1ccc(-c2cn3ccccc3n2)cc1, the Potency is reported as inconclusive: 1.64 µM [activator, partial curve]. With Cn1c(-c2ccccc2)cc2c3no[n+]([O-])c3ccc21 the “activity change, positive = activation” value was inactive: 4.76%. With O=C(Nc1cccc(O)c1)c1ccccc1 the Potency was inconclusive: 16.4 µM [activator, partial curve]. For Cc1ccc(C(=O)N2CCN(S(=O)(=O)c3ccc(Br)cc3)CC2)o1, the “activity change, positive = activation” value was inactive: -2.67%. With COc1ccc(CNC(=O)CSc2nc(-c3ccccc3)cc(-c3cccs3)c2C#N)cc1 the Potency was inconclusive: 20.6 µM [activator, single point]. With COc1ccc(C(=O)OCC(=O)NC2CC2)cc1[N+](=O)[O-] the “activity change, positive = activation” value was inactive: 1.73%. For O=C(Nc1ccccc1O)c1ccc(Cl)cc1, the Potency was inconclusive: 18.4 µM [activator, partial curve, poor fit]. In the case of O=C(NCC1CCCO1)c1cc(-c2ccc(Cl)cc2Cl)on1 (stereo not given), the Potency is reported as inconclusive: 0.651 µM [activator, full curve, poor fit]. For CCC(Sc1nc2ccccc2c(=O)[nH]1)C(=O)Nc1ccc(C(C)=O)cc1 (stereo not given), the Potency was inconclusive: 20.6 µM [activator, single point]. In the case of Cc1cc(NC(=O)CSCC(=O)Nc2ccccc2Oc2ccccc2)no1, the Potency is reported as inconclusive: 3.66 µM [activator, partial curve, poor fit]. For COc1ccc(C(=O)c2coc3c2C(=O)C(=O)c2ccccc2-3)cc1, the Potency was inconclusive: 18.3 µM [activator, single point]. With CN(C)c1ccc(N/C=C/C(=O)c2ccc(F)cc2)cc1 the Potency was active: 2.06 µM. For NC(N)=N/N=C/c1ccc(OCc2ccc(Cl)cc2)cc1, the Potency was inconclusive: 20.6 µM [activator, partial curve, poor fit]. For CCC(C)NC(=O)CSc1nc2cc3c(cc2c(=O)n1Cc1ccco1)OCO3 (stereo not given), the Potency was inconclusive: 20.6 µM [activator, single point]. With CCc1ccc(CNC(=O)C2CCN(c3nnc(C)c4c(C)n(-c5ccc(C)cc5)nc34)CC2)cc1 the Potency was inconclusive: 25.9 µM [activator, single point].
